# According to article PMC4336329 (PLoS ONE, 2015):
# Out of some 310,000 compounds screened, about 14,000 (4.5%) showed an effect of 50% or more. The effect is printed as a negative number. The list shows a part of the results.
# Biological target: human ether-à-go-go-related gene (hERG) potassium channel (human, UniProt Q12809)
# Test: primary screen, population patch clamp on CHO cells stably expressing hERG
# 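Note: peak tail current of the secondary pulse compared with the same well before compound.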
# Sequence of human ether-à-go-go-related gene (hERG) potassium channel (Q12809 whole entry, looked up): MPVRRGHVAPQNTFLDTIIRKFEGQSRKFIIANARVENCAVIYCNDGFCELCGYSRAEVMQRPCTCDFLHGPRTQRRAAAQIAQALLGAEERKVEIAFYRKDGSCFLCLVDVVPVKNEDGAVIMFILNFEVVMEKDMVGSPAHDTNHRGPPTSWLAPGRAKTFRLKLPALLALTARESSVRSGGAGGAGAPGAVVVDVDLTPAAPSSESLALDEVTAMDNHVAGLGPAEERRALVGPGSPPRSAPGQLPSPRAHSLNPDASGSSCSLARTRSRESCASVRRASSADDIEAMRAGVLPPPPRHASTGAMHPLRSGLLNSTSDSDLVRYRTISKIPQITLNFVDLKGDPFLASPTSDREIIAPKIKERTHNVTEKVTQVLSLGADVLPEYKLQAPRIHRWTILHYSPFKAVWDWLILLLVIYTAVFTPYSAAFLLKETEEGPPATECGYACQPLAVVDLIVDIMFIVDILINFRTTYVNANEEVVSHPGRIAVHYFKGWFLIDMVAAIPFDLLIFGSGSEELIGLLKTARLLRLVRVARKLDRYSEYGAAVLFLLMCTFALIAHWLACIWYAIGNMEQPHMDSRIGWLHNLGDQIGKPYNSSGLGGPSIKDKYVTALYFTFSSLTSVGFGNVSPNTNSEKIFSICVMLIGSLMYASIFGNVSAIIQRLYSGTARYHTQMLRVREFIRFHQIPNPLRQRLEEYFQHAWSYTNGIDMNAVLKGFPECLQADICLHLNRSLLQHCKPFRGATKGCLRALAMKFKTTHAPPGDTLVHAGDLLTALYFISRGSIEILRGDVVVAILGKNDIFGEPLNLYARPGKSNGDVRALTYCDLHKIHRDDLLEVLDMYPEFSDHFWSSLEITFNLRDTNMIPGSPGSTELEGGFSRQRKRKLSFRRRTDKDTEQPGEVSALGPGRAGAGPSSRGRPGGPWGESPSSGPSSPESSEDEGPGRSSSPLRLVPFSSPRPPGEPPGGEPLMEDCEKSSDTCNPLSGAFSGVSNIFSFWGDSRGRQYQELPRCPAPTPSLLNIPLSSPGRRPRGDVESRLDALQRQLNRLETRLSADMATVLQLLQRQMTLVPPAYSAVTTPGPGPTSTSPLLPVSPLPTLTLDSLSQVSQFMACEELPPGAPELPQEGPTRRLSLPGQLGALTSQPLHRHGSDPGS
row,SMILES,"hERG current change (%, negative = inhibition) at 10uM [%]"
1,CCOc1ccccc1OCC(=O)NNC(=S)NC1CCCCC1,14
2,Cc1ccc(C)c(CSC2=NCCN2C(=O)Cc2ccc([N+](=O)[O-])cc2)c1,-4.06
3,CN1CCN(/N=C/c2ccc(-c3ccc([N+](=O)[O-])cc3Cl)o2)CC1,-46.2
4,CCCCN(C(=O)CSc1nn(-c2ccc(F)cc2)c(=S)s1)c1c(N)n(CCCC)c(=O)[nH]c1=O,-11.8
5,Cc1cccc(NC(=O)CSCC(=O)N2CCCc3ccccc32)c1,5.8
6,CCOC(=O)C1(CCc2ccccc2)CCN(Cc2cccc3c2OCO3)CC1,-75
7,CC1(NC(=O)CSc2nnc(-c3ccco3)n2Cc2ccccc2)CCS(=O)(=O)C1 (centres unmarked),-11.8
8,C=CCn1c2ccccc2c2nnc(SCC(=O)Nc3cc(C)on3)nc21,-8.39
9,COc1ccccc1NC(=O)Cn1c(=O)sc2ccccc21,-1.61
10,CC1(C)N(O)CC(c2cccs2)=[N+]1[O-],4.5
11,CC(=O)N(Cc1cc(=O)[nH]c2ccccc12)c1ccccc1,5.79
12,CCOC(=O)[C@H]1[C@H]2COc3ccc(OC)cc3[C@@H]2N2C(=O)c3ccccc3NC(=O)[C@@]12C,4.24
13,Cc1ccc(CN2CCSc3ccc(C(=O)N4CCN(c5ncccn5)CC4)cc32)cc1,19
14,CC(C)Cc1nnc(NC(=O)CCC(=O)NC2CCCCCC2)s1,-48.6
15,CCc1ccc(NC(=O)N(CCN(C)C)C(C)c2cccnc2)cc1 (centres unmarked),-21.4
16,CC1CCN(CC(=O)c2ccc3c(c2)OCCO3)CC1.O=C(O)C(=O)O,10.2
17,COc1ccc(CNc2oc(-c3cccc4ccccc34)nc2C#N)cc1,1.57
18,CC1(c2ccccc2)NC(=O)N(CC(=O)Nc2cc(S(=O)(=O)N3CCOCC3)ccc2Cl)C1=O (centres unmarked),-7.82
19,Cc1nnc(SCc2ccc(CSc3nnc(C)c(=O)[nH]3)cc2)[nH]c1=O,19.9
20,O=C(NCCSc1c[nH]c2ccccc12)c1ccc(Br)o1,-9.5
21,Cc1cccc(Nc2ccncc2S(=O)(=O)NC(=O)NC(C)C)c1,2.65
22,CCCCCc1cc(=O)oc2c(C(CCN3CCCC(C)C3)c3cc(OC)c(OC)c(OC)c3)c(OC)cc(OC)c12 (centres unmarked),-64.4
23,COC(=O)c1cccc(N=Cc2c(O)n(Cc3ccc(F)cc3)c(=O)[nH]c2=O)c1,10.6
